The values that follow come from a collection of fitness landscapes (doi:10.1126/science.1257360).

B1: PhoQ; a variant is named by its letters at X, in order, P23837 (parent)
chain: MKKLLRLFFPLSLRVRFLLATAAVVLVLSLAYGMVALIGYSVSFDKTTFRLLRGESNLFYTLAKWENNKLHVELPENIDKQSPTMTLIYDENGQLLWAQRDVPWLMKMIQPDWLKSNGFHEIEADVNDTSLLLSGDHSIQQQLQEVREDDDDAEMTHSVAVNVYPATSRMPKLTIVVVDTIPVELKSSYMVWSWFIYVLSANLLLVIPLLWVAAWWSLRPIEALAKEVRELEEHNRELLNPATTRELTSLVRNLNRLLKSERERYDKYRTTLTDLTHSLKTPLXXLQXXLRSLRSEKMSVSDAEPVMLEQISRISQQIGYYLHRASMRGGTLLSRELHPVAPLLDNLTSALNKVYQRKGVNISLDISPEISFVGEQNDFVEVMGNVLDNACKYCLEFVEISARQTDEHLYIVVEDDGPGIPLSKREVIFDRGQRVDTLRPGQGVGLAVAREITEQYEGKIVAGESMLGGARMEVIFGRQHSAPKDE

Some of the results follow.

This experiment covers variants of B1. The experiment in a line: enrichment ratio after two sorts for PhoP signalling (ratio (wild type AVST 3.29)); higher = more functional. As to conditions: with PhoP (E. coli).
Take PLIP: the enrichment ratio was no more than 0.25.
As for HHIS, the enrichment ratio is no more than 0.25.
WWMR: the enrichment ratio is no more than 0.25.
Turning to IHCQ, the enrichment ratio is no more than 0.25.
Turning to MDRC, the enrichment ratio is no more than 0.25.
Take WQNK: the enrichment ratio was no more than 0.25.
Regarding GQMS, the enrichment ratio was no more than 0.25.
Then LCFI, with no more than 0.25; and TPMR, with no more than 0.25; and AIPH, with no more than 0.25.
In the case of PARV, the enrichment ratio was no more than 0.25.
Then WINF, with no more than 0.25.
As for ISKI, the enrichment ratio is no more than 0.25.
On to FGFL, for which the enrichment ratio was found to be 0.333.
As for GRYS, the enrichment ratio is no more than 0.25.
FSES: the enrichment ratio was no more than 0.25.
The same measure for HTFF: no more than 0.25; for STRI: no more than 0.25; for PYTQ: no more than 0.25.
Take GGFF: the enrichment ratio is no more than 0.25.
On to MSFK, for which the enrichment ratio is no more than 0.25.
On to VEGW, for which the enrichment ratio was no more than 0.25.
ITCC: the enrichment ratio was no more than 0.25.
Then IQAD, with no more than 0.25.
As for TYSK, the enrichment ratio was no more than 0.25.
As for MYMP, the enrichment ratio was no more than 0.25.
In the case of GCLI, the enrichment ratio was 7.28.
As to FVRS, the enrichment ratio was no more than 0.25.
As for HKYF, the enrichment ratio was no more than 0.25.
The same measure for TCDC: no more than 0.25; for CIFF: no more than 0.25.
As to YKIM, the enrichment ratio was no more than 0.25.
Turning to MQNR, the enrichment ratio is no more than 0.25.
On to KIDV, for which the enrichment ratio is no more than 0.25.
The same measure for LRIR: no more than 0.25.
Turning to PGEI, the enrichment ratio is no more than 0.25.
Consider KADA, for which the enrichment ratio was no more than 0.25.
HRTC: the enrichment ratio is no more than 0.25.
On to LMQD, for which the enrichment ratio was no more than 0.25.
With WEAK, the enrichment ratio is no more than 0.25.
For the variant GGYM, the enrichment ratio is no more than 0.25.
Then FETL, with 0.987; and GGYT, with no more than 0.25; and LCLY, with no more than 0.25.
The same measure for FAVW: no more than 0.25; for PLDF: no more than 0.25; for SDNV: no more than 0.25.
In the case of PIWF, the enrichment ratio is no more than 0.25.
For GDPW, the enrichment ratio was no more than 0.25.
In the case of QIVY, the enrichment ratio was no more than 0.25.
Take DATF: the enrichment ratio is no more than 0.25.
Then PYSE, with no more than 0.25; and WDII, with no more than 0.25; and YEPN, with no more than 0.25.
For the variant DELI, the enrichment ratio is no more than 0.25.
In the case of DSCN, the enrichment ratio was no more than 0.25.
On to RDNF, for which the enrichment ratio was no more than 0.25.
The same measure for FEAN: no more than 0.25; for PSDR: no more than 0.25.
Regarding PDEP, the enrichment ratio is no more than 0.25.
Take PPST: the enrichment ratio was no more than 0.25.
As for AFGA, the enrichment ratio is no more than 0.25.
In the case of WYFT, the enrichment ratio is no more than 0.25.
Then WGRG, with no more than 0.25; and KNNF, with no more than 0.25; and HNNA, with no more than 0.25.
In the case of TDRV, the enrichment ratio is no more than 0.25.
The same measure for PFYV: no more than 0.25; for TSNH: 9.11.
The same measure for MKYV: no more than 0.25; for MRKF: no more than 0.25; for QSGN: 1.27.
The same measure for PPWC: no more than 0.25; for HIQV: no more than 0.25.
Regarding EDHK, the enrichment ratio was no more than 0.25.
Turning to SCTM, the enrichment ratio was 17.9.
Consider GQDI, for which the enrichment ratio is no more than 0.25.
Then ELKR, with no more than 0.25; and MHIP, with no more than 0.25.
For YYRI, the enrichment ratio was no more than 0.25.
Turning to FLIQ, the enrichment ratio is no more than 0.25.
As for AVPS, the enrichment ratio was no more than 0.25.
As to QEKC, the enrichment ratio was no more than 0.25.
The same measure for NPVI: no more than 0.25.
For the variant DEWF, the enrichment ratio is no more than 0.25.
For the variant WQTM, the enrichment ratio was no more than 0.25.
As for RGEQ, the enrichment ratio was no more than 0.25.
As for SCGD, the enrichment ratio was no more than 0.25.
The same measure for DFGA: no more than 0.25; for YGPF: no more than 0.25.
For LRFA, the enrichment ratio was no more than 0.25.
Consider HNES, for which the enrichment ratio is no more than 0.25.
As for RTGS, the enrichment ratio is no more than 0.25.
As to RCFD, the enrichment ratio was no more than 0.25.
SDYA: the enrichment ratio was no more than 0.25.
Turning to RRYQ, the enrichment ratio was no more than 0.25.
The same measure for YTWF: no more than 0.25; for MIFL: 2.53.
Turning to NWDH, the enrichment ratio is no more than 0.25.
With IFQC, the enrichment ratio is no more than 0.25.
The same measure for ICLK: no more than 0.25; for TGYM: 26.5; for IPSY: no more than 0.25.
On to WKMF, for which the enrichment ratio is no more than 0.25.
With HPGC, the enrichment ratio was no more than 0.25.
Then SPWT, with no more than 0.25; and MSPT, with no more than 0.25.
For the variant WIPC, the enrichment ratio was no more than 0.25.
Turning to WAGW, the enrichment ratio is no more than 0.25.
Turning to EPPM, the enrichment ratio was no more than 0.25.
Regarding WREG, the enrichment ratio was no more than 0.25.
WIFD: the enrichment ratio is no more than 0.25.
IMFF: the enrichment ratio is no more than 0.25.
On to RMQY, for which the enrichment ratio was no more than 0.25.
As for ADLK, the enrichment ratio is no more than 0.25.
Then KFHH, with no more than 0.25.
Regarding YEWN, the enrichment ratio stood at 0.272.
Consider WCYK, for which the enrichment ratio was no more than 0.25.
As to YPSF, the enrichment ratio was no more than 0.25.
Turning to KGSC, the enrichment ratio is no more than 0.25.
As for KLGH, the enrichment ratio is no more than 0.25.
Take WIWD: the enrichment ratio is no more than 0.25.
As for DKLP, the enrichment ratio is no more than 0.25.
In the case of RYHG, the enrichment ratio was no more than 0.25.
In the case of HYWY, the enrichment ratio is no more than 0.25.
Then LYHQ, with no more than 0.25; and IVRI, with no more than 0.25.
On to TTCQ, for which the enrichment ratio amounted to 18.9.
The same measure for QAHS: no more than 0.25; for GLVW: no more than 0.25; for ATGS: 5.38.
As for FMHS, the enrichment ratio is no more than 0.25.
In the case of GISS, the enrichment ratio was 13.5.
Turning to AVVP, the enrichment ratio is no more than 0.25.
The same measure for RRFS: no more than 0.25.
For IPFT, the enrichment ratio is no more than 0.25.
Regarding MNNP, the enrichment ratio was no more than 0.25.
Regarding LFDP, the enrichment ratio is no more than 0.25.
For LTGQ, the enrichment ratio was no more than 0.25.
For the variant IFRL, the enrichment ratio was no more than 0.25.
For the variant EVDI, the enrichment ratio was no more than 0.25.
As to MRMS, the enrichment ratio is no more than 0.25.
In the case of VILS, the enrichment ratio was no more than 0.25.
Turning to NILQ, the enrichment ratio is no more than 0.25.
TRNE: the enrichment ratio was no more than 0.25.
For the variant RKSL, the enrichment ratio is no more than 0.25.
As to QGRL, the enrichment ratio was no more than 0.25.
The same measure for VVHS: no more than 0.25; for MQCS: 1.74; for WVMD: no more than 0.25.
On to LQEE, for which the enrichment ratio was no more than 0.25.
Consider VFIV, for which the enrichment ratio was no more than 0.25.
For PYKF, the enrichment ratio is no more than 0.25.
